Reference: the BET-seq Pho4 binding data (Le et al. 2018)
Some of the results follow. Values were computed here from the reads of four pooled replicates and scatter widely.

The sequences below were run against T1, Pho4 (S. cerevisiae) (UniProt P07270) (assay: relative binding free energy (BET-seq); higher = weaker binding). Conditions: reference: library average.
T1 sequence: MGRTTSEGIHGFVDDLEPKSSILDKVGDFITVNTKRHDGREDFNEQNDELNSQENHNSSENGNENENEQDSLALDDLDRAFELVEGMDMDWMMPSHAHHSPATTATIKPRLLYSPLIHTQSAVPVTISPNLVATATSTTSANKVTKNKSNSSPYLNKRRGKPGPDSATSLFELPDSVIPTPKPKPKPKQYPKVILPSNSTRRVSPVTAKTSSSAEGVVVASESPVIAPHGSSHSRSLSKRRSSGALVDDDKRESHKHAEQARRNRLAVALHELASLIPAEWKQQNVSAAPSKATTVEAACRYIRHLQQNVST

Sequence	relative binding free energy [kcal/mol]
TGGTTCACGTGGTGGT	0.19
TGATCCACGTGTGAGT	0.11
TCGATCACGTGGATTG	0.2
GGGATCACGTGTAATT	0.36
TTTCGCACGTGTGGAG	0.01
GATTTCACGTGTGTCG	0.28
GGGAACACGTGCTTTG	0.21
TTTTGCACGTGGAGGG	0.01
TTCTTCACGTGGAGTA	0.26
GCTGCCACGTGTGGTG	0.03
AGGGACACGTGCAGGT	0.05
TTAGGCACGTGTAGCG	-0.08
CGGAGCACGTGTGAGG	0.07
TATGTCACGTGCGTTT	0.14
AGGTACACGTGGTTAA	-0.16
TAGCTCACGTGGGAGG	0.19
AGAACCACGTGGGGTG	-0.17
ACGTTCACGTGTATTG	0.14
TACTGCACGTGTTAGT	-0.01
TAGGTCACGTGTTCAT	0.05
TGTTCCACGTGCGTGT	-0.07
CAGGGCACGTGGTGGG	-0.15
TGTTGCACGTGTGGTT	0.19
TGCGACACGTGTCGGG	0.08
GGTTGCACGTGTACGG	0.07
GGATACACGTGGGGGT	-0.08

Sequence	relative binding free energy [kcal/mol]
CTTTACACGTGAGTGG	-0.03
GAGATCACGTGGGTCG	0.02
AGGTGCACGTGTGGCT	0.04
TGGGTCACGTGTGTTG	0.18
TTGTACACGTGAATAT	0.09
TCGTGCACGTGGTTAA	-0.12
TGGGTCACGTGCAGAT	0.03
TGTTGCACGTGATTTA	0.06
GAATGCACGTGAAGGG	0.3
AGCCACACGTGTGGGG	0.03
TTCTTCACGTGGTAAG	0.16
GTATTCACGTGAGGTC	0.31
GGTCGCACGTGTGTGA	0.06
TTGCTCACGTGTCTTA	0.31
GTTTTCACGTGAGCAT	0.27
GGTGACACGTGGGTTG	-0.14
CAGAGCACGTGGGTTT	-0.14
CTTAACACGTGGTATT	-0.11
TGGGTCACGTGTCGGC	0.15
TTTGTCACGTGGTATA	0.04
TGATACACGTGAAGTT	0.31
TCTTTCACGTGCTTGT	0.27
GCGTGCACGTGTGTAT	0.04
GGAGTCACGTGAGACG	0.38
TAGGACACGTGGGTGC	-0.2
GCTGTCACGTGAGGTG	0.28

Sequence	relative binding free energy [kcal/mol]
TGTGGCACGTGCGTTC	-0.16
TAGGTCACGTGGCGGA	-0.02
ATGAGCACGTGAGGGT	0.18
TCCGTCACGTGCGTGT	0.09
GAGTACACGTGTCTGG	-0.01
GGATGCACGTGAAGAT	0.25
ATAAACACGTGGGTTA	-0.21
TTTGTCACGTGCTGAT	0.02
ATTTGCACGTGATGGT	0.24
ATGAACACGTGATTAT	0.27
TTGGTCACGTGAAAGT	0.35
GTCTGCACGTGTTGGG	0.09
GACTGCACGTGGGTTT	-0.14
GTTTTCACGTGAAGTA	0.49
TTGTGCACGTGCGGCG	-0.06
GCTTACACGTGTGGGG	0.06
TTGTACACGTGTTCGG	0.03
GTGACCACGTGAGGTG	0.11
AGCTTCACGTGATTTT	0.36
TCGCGCACGTGTTGGG	-0.03
TTAATCACGTGGTTGA	0.09
CGAGTCACGTGGTATG	0.06
TCTTGCACGTGCGTGG	-0.08
GATGCCACGTGTTTTT	0.05
GAATGCACGTGGTTTG	0
GTATTCACGTGGTCGT	0.17

Sequence	relative binding free energy [kcal/mol]
AGGAGCACGTGATGTT	0.03
GTCTGCACGTGGTGGA	0.01
TTGTTCACGTGAAATG	0.45
GTTGCCACGTGGGTCT	-0.18
CAGAGCACGTGAGTGG	0.06
AGGATCACGTGGAAGT	0.25
GTAATCACGTGGTGAG	0.14
GGATTCACGTGGACGT	0.24
GAGATCACGTGCTAGG	0.38
TTGTTCACGTGGTCTT	0.16
CAGGACACGTGTGGTT	0.13
GCGTTCACGTGTGAGT	0.23
TATGTCACGTGGAAAA	0.14
GGAAGCACGTGATAGT	-0.14
GCAATCACGTGTGGGA	0.22
GGCGACACGTGTGTGG	0.15
TGCCACACGTGTGTTA	0.24
ATTGGCACGTGAGATT	0.04
TTCTTCACGTGGATGG	0.26
GTTATCACGTGCAGTG	0.09
CAGGTCACGTGGGCAT	0.03
TTTTTCACGTGCAGAG	0.4
TAATTCACGTGAAGTT	0.3
GTCATCACGTGGGTGC	0.08
ATTTGCACGTGGGGCG	-0.15
TGCAGCACGTGTGTTT	-0.14

Sequence	relative binding free energy [kcal/mol]
GTGGGCACGTGCTGCT	-0.25
TGTTCCACGTGTGGAG	0.2
TATAGCACGTGTGTGC	0.02
GAGGGCACGTGGCCGG	-0.26
ATGTACACGTGGGGAT	0.05
TAGACCACGTGGGTTG	-0.1
TGCAACACGTGATGTT	0.29
GAAGTCACGTGGATGG	0.12
CGGGGCACGTGGTCAT	-0.22
ATTTGCACGTGGCCTG	-0.08
TTATTCACGTGTTGAG	0.22
TTGTACACGTGTGCGC	0.1
GGGGGCACGTGTATGC	0.02
GATTTCACGTGGAGCG	0.29
GGTGTCACGTGGGTGG	0.03
GATGGCACGTGGTATC	0.01
GTTTGCACGTGGCTGC	-0.01
GTGCACACGTGTGGTA	0.2
GGGGTCACGTGGATGG	0.19
GCGAGCACGTGGGTCG	-0.19
TGATGCACGTGTGCTT	0.02
GGGATCACGTGCTGTT	0.35
GTGCACACGTGGTTTT	0.1
GTGGCCACGTGGGACG	-0.13
GTGGTCACGTGTTGGG	0.15
AAGTCCACGTGGGGGA	-0.17

Sequence	relative binding free energy [kcal/mol]
GTCCGCACGTGCGGGG	-0.12
TTTTGCACGTGTTCTG	-0.09
TTGCGCACGTGAGGTT	0.02
CGGGGCACGTGGAGCG	-0.15
GGCTGCACGTGGGGTT	-0.09
GTTTTCACGTGCCGGT	0.28
ACGTACACGTGGAGGT	0.08
AGTTACACGTGAGCTT	0.21
ATGGACACGTGTGAGT	0.01
TTACGCACGTGGTAAT	-0.06
TAGTGCACGTGGTACT	-0.25
TAAGGCACGTGAGGAC	0.23
CTTTGCACGTGAGTGC	0.23
TGCGTCACGTGTGATT	0.11
GTAGGCACGTGAGTCT	0.18
GACATCACGTGGTAGT	0.35
GTGCGCACGTGAGAGT	0.28
TGGAGCACGTGGAGTC	-0.14
TGGGACACGTGAGCGT	0.12
AATGACACGTGTGGCT	0.01
TGGATCACGTGTGTTG	0.09
CCTGTCACGTGTTGGT	0.1
GTGGACACGTGGTTAC	-0.02
TTGTTCACGTGGCGGG	0.2
TGTACCACGTGATTTT	0.06
CTAAGCACGTGGGCTG	-0.15

Sequence	relative binding free energy [kcal/mol]
TCGTTCACGTGTGACT	0.41
GAGCGCACGTGGGTGT	-0.25
GGGGCCACGTGTAATG	0.01
GCTAGCACGTGGTTGA	0.06
TGAAGCACGTGGTATT	-0.16
GCGATCACGTGTTTGA	0.39
TGAGTCACGTGCTATT	-0.02
ATTAACACGTGTGGTC	0.19
GGACGCACGTGGTTGG	-0.12
GGGGTCACGTGTCGGG	0.19
GATTTCACGTGGTTAT	0.27
TTGTTCACGTGAAAGC	0.35
ATTTCCACGTGTTTAT	0.1
TTATTCACGTGTTTAG	0.38
TATTGCACGTGAGGCG	0.12
ATTGACACGTGTTAAA	0.09
AATGTCACGTGCTGTT	-0.08
GTATTCACGTGCGTGG	0.06
GGTGGCACGTGCTAGG	-0.08
TACTTCACGTGTATTA	0.25
GGTCGCACGTGATTAT	0.18
TGAAGCACGTGGCGCG	-0.16
TAGAGCACGTGGTATA	-0.16
GTTTACACGTGGAGGG	0.12
GTAATCACGTGGGAGT	0.07
GCTGGCACGTGTATTT	0.04

Sequence	relative binding free energy [kcal/mol]
GCGTACACGTGTATTG	0.03
TAGGTCACGTGCGATT	0.21
ACGTGCACGTGAAGGG	0.1
CGTATCACGTGTTGTG	0.13
TTACGCACGTGGGGCT	-0.38
GGGTGCACGTGAAGTT	0.35
GGGACCACGTGTGTAG	0.04
CAGGTCACGTGCGGGT	0
GGGTGCACGTGGATAT	0.06
GGGAGCACGTGTTGGT	-0.06
AACGGCACGTGAAAGG	0.3
GTAGTCACGTGAGGGC	0.36
AGCGTCACGTGGGGTT	-0.08
GGTGGCACGTGTGTAT	0.01
GTTGGCACGTGGTAGG	-0.07
GATGTCACGTGAGGTA	0.38
AATTGCACGTGGGAGG	-0.13
TTAGACACGTGATTGG	0.23
GAGTTCACGTGTGTAG	0.21
GGATTCACGTGGTAAT	0.07
AGGTACACGTGGAGAT	0.1
GGTAGCACGTGGGGAG	-0.09
ATTTACACGTGGTTAT	0.16
AATTACACGTGTGTCG	0.26
TTCTTCACGTGTCGGT	0.27
TTAGACACGTGGGACG	-0.13

Sequence	relative binding free energy [kcal/mol]
CGGCACACGTGTAGGG	0.1
GGCTTCACGTGTGTTC	0.4
ATAGTCACGTGATTAG	0.19
CTGGTCACGTGATGTC	0.27
GGTTACACGTGTAAGA	0.33
GAGACCACGTGGGTGG	-0.14
CTTGTCACGTGTTGTC	-0.08
TTGTGCACGTGGTGAC	-0.21
GTTTGCACGTGCAAGT	-0.01
GTTTGCACGTGTATTT	0.19
GGATTCACGTGGGAGA	0.34
GATGGCACGTGAGGTC	0.26
TGATGCACGTGGGGTT	-0.23
GAGGTCACGTGGTCTT	0.06
AATAGCACGTGGGCAG	-0.25
AGATGCACGTGAAAGG	0.21
ATTGTCACGTGTAGAA	-0.01
TGTAGCACGTGGGGCT	-0.19
GATGCCACGTGATTTG	0.23
TTGGGCACGTGGCGCA	-0.33
TCGGGCACGTGACTGT	0.1
ATAGTCACGTGGAGAA	0.07
